Experimental findings from patent US20250066451A1 (SWEDISH ORPHAN BIOVITRUM AB PUBL, published 2025) are described below.

T1: human IL-1R-I (human, UniProt P14778 18-332, limits assumed)
T1 construct: bought recombinant protein; also called hIL-1R-I; hIL-1RI
T1 sequence (looked up): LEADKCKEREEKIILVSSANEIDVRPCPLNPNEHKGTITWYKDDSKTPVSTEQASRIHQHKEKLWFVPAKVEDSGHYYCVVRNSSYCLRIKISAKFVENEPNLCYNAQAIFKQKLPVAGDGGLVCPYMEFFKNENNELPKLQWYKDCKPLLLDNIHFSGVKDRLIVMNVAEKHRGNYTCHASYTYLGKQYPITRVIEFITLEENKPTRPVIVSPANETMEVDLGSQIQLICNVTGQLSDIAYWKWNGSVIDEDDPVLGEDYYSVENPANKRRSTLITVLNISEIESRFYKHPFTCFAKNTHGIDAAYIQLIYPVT

B1: Z18982 (Z-ABD) (designed binder)
chain: AQHDEALEVDAKYAKEIEEVQLEIFSLPNLTRKQYTAFIRKLLDDPSQSSELLSEAKKLNDSQAPKVDYVLAEAKVLANRELDKYGVSDYYKNLINNAKTVEGVKALIDEILAALPYVPG
B2: Z19090 (Z-ABD) (designed binder)
chain: AQHDEALEVDAKYAKEIEEVQMEIFHLPNLTRRQYTAFIRKLLDDPSQSSELLSEAKKLNDSQAPKVDYVLAEAKVLANRELDKYGVSDYYKNLINNAKTVEGVKALIDEILAALPYVPG
B3: Z19031 (Z-ABD) (designed binder)
chain: AQHDEALEVDAKYAKEVETIQLEIFALPNLTRRQYTAFIRKLLDDPSQSSELLSEAKKLNDSQAPKVDYVLAEAKVLANRELDKYGVSDYYKNLINNAKTVEGVKALIDEILAALPYVPG
B4: Z19012 (Z-ABD) (designed binder)
chain: AQHDEALEVDAKYAKEVEEVQLEIFALPNLTRKQYTAFIRKLLDDPSQSSELLSEAKKLNDSQAPKVDYVLAEAKVLANRELDKYGVSDYYKNLINNAKTVEGVKALIDEILAALPYVPG
B5: Z19144 (Z-ABD) (designed binder)
chain: AQHDEALEVDAKYAKEIEEVQMEIFALPNLTRKQYTAFIRKLFDDPSQSSELLSEAKKLNDSQAPKVDYVLAEAKVLANRELDKYGVSDYYKNLINNAKTVEGVKALIDEILAALPYVPG
B6: Z19075 (Z-ABD) (designed binder)
chain: AQHDEALEVDAKYAKEVEIIQYEIFGLPNLTRKQYTAFIRKLLDDPSQSSELLSEAKKLNDSQAPKVDYVLAEAKVLANRELDKYGVSDYYKNLINNAKTVEGVKALIDEILAALPYVPG
B7: Z19072 (Z-ABD) (designed binder)
chain: AQHDEALEVDAKYAKEIEEIQLEIFSLPNLTRKQYTAFIRKLLDDPSQSSELLSEAKKLNDSQAPKVDYVLAEAKVLANRELDKYGVSDYYKNLINNAKTVEGVKALIDEILAALPYVPG
B8: Z19147 (Z-ABD) (designed binder)
chain: AQHDEALEVDAKYAKELEEIQMEIFYLPNLTRRQYTAFIRKLLDDPSQSSELLSEAKKLNDSQAPKVDYVLAEAKVLANRELDKYGVSDYYKNLINNAKTVEGVKALIDEILAALPYVPG
B9: Z19059 (Z-ABD) (designed binder)
chain: AQHDEALEVDAKYAKEVEEAQMEIYGLPNLTRKQYTAFIRKLLDDPSQSSELLSEAKKLNDSQAPKVDYVLAEAKVLANRELDKYGVSDYYKNLINNAKTVEGVKALIDEILAALPYVPG
B10: Z18989 (Z-ABD) (designed binder)
chain: AQHDEALEVDAKYAKEIEDVQLEIFALPNLTRKQYTAFIRKLLDDPSQSSELLSEAKKLNDSQAPKVDYVLAEAKVLANRELDKYGVSDYYKNLINNAKTVEGVKALIDEILAALPYVPG
B11: Z19053 (Z-ABD) (designed binder)
chain: AQHDEALEVDAKYAKEIEDVQLEIFKLPNLTRRQYTAFIRKLLDDPSQSSELLSEAKKLNDSQAPKVDYVLAEAKVLANRELDKYGVSDYYKNLINNAKTVEGVKALIDEILAALPYVPG
B12: Z19054 (Z-ABD) (designed binder)
chain: AQHDEALEVDAKYAKEIEWVQLEIFHLPNLTRKQYTAFIRKLLDDPSQSSELLSEAKKLNDSQAPKVDYVLAEAKVLANRELDKYGVSDYYKNLINNAKTVEGVKALIDEILAALPYVPG
B13: Z19079 (Z-ABD) (designed binder)
chain: AQHDEALEVDAKYAKEVEQAQMEIFKLPNLTRKQYTAFIRKLLDDPSQSSELLSEAKKLNDSQAPKVDYVLAEAKVLANRELDKYGVSDYYKNLINNAKTVEGVKALIDEILAALPYVPG
B14: Z19127 (Z-ABD) (designed binder)
chain: AQHDEALEVDAKYAKEVVSAYYEIYELPNLTRKQYTAFIRKLLDDPSQSSELLSEAKKLNDSQAPKVDYVLAEAKVLANRELDKYGVSDYYKNLINNAKTVEGVKALIDEILAALPYVPG
B15: Z19094 (Z-ABD) (designed binder)
chain: AQHDEALEVDAKYAKETEAAQMEIYKLPNLTRKQYTAFIRKLLDDPSQSSELLSEAKKLNDSQAPKVDYVLAEAKVLANRELDKYGVSDYYKNLINNAKTVEGVKALIDEILAALPYVPG
B16: Z19143 (Z-ABD) (designed binder)
chain: AQHDEALEVDAKYAKEVEEIQLEIFHLPNLTRRQYTAFIIKLLDDPSQSSELLSEAKKLNDSQAPKVDYVLAEAKVLANRELDKYGVSDYYKNLINNAKTVEGVKALIDEILAALPYVPG
B17: Z19117 (Z-ABD) (designed binder)
chain: AQHDEALEVDAKYAKEIEAIQLEIFALPNLTRKQYTAFIRKLLDDPSQSSELLSEAKKLNDSQAPKVDYVLAEAKVLANRELDKYGVSDYYKNLINNAKTVEGVKALIDEILAALPYVPG
B18: Z19141 (Z-ABD) (designed binder)
chain: AQHDEALEVDAKYAKEVEEIQHEIYDLPNLTRKQYTAFIRKLLDDPSQSSELLSEAKKLNDSQAPKVDYVLAEAKVLANRELDKYGVSDYYKNLINNAKTVEGVKALIDEILAALPYVPG
B19: Z19146 (Z-ABD) (designed binder)
chain: AQHDEALEVDAKYAKETEAVQMEIFALPNLTRKQYTAFIRKLLDDPSQSSELLSEAKKLNDSQAPKVDYVLAEAKVLANRELDKYGVSDYYKNLINNAKTVEGVKALIDEILAALPYVPG
B20: Z19099 (Z-ABD) (designed binder)
chain: AQHDEALEVDAKYAKEVEEIQLEIFRLPNLTRRQYTAFIRKLLDDPSQSSELLSEAKKLNDSQAPKVDYVLAEAKVLANRELDKYGVSDYYKNLINNAKTVEGVKALIDEILAALPYVPG
B21: Z19115 (Z-ABD) (designed binder)
chain: AQHDEALEVDAKYAKETEEIQLEIFSLPNLTRKQYTAFIRKLLDDPSQSSELLSEAKKLNDSQAPKVDYVLAEAKVLANRELDKYGVSDYYKNLINNAKTVEGVKALIDEILAALPYVPG
B22: Z19107 (Z-ABD) (designed binder)
chain: AQHDEALEVDAKYAKETEEVQYEIFALPNLTRKQYTAFIRKLLDDPSQSSELLSEAKKLNDSQAPKVDYVLAEAKVLANRELDKYGVSDYYKNLINNAKTVEGVKALIDEILAALPYVPG
B23: Z19135 (Z-ABD) (designed binder)
chain: AQHDEALEVDAKYAKEVEAAQMEIFKLPNLTRKQYTAFIRKLLDDPSQSSELLSEAKKLNDSQAPKVDYVLAEAKVLANRELDKYGVSDYYKNLINNAKTVEGVKALIDEILAALPYVPG
B24: Z19057 (Z-ABD) (designed binder)
chain: AQHDEALEVDAKYAKEIEQVQLEIFGLPNLTRKQYTAFIRKLLDDPSQSSELLSEAKKLNDSQAPKVDYVLAEAKVLANRELDKYGVSDYYKNLINNAKTVEGVKALIDEILAALPYVPG
B25: Z19078 (Z-ABD) (designed binder)
chain: AQHDEALEVDAKYAKEIEAAQMEIFGLPNLTRKQYTAFIRKLLDDPSQSSELLSEAKKLNDSQAPKVDYVLAEAKVLANRELDKYGVSDYYKNLINNAKTVEGVKALIDEILAALPYVPG
B26: Z19060 (Z-ABD) (designed binder)
chain: AQHDEALEVDAKYAKEVEWAQMEIFDLPNLTRKQYTAFIRKLLDDPSQSSELLSEAKKLNDSQAPKVDYVLAEAKVLANRELDKYGVSDYYKNLINNAKTVEGVKALIDEILAALPYVPG
B27: Z19085 (Z-ABD) (designed binder)
chain: AQHDEALEVDAKYAKEVEEIQYEIFGLPNLTRKQYTAFIRKLLDDPSQSSELLSEAKKLNDSQAPKVDYVLAEAKVLANRELDKYGVSDYYKNLINNAKTVEGVKALIDEILAALPYVPG
B28: Z19118 (Z-ABD) (designed binder)
chain: AQHDEALEVDAKYAKEIEHVQYEIFALPNLTRKQYTAFIRKLLDDPSQSSELLSEAKKLNDSQAPKVDYVLAEAKVLANRELDKYGVSDYYKNLINNAKTVEGVKALIDEILAALPYVPG
B29: Z19123 (Z-ABD) (designed binder)
chain: AQHDEALEVDAKYAKEIEKAQMEIFALPNLTRRQYTAFIRKLLDDPSQSSELLSEAKKLNDSQAPKVDYVLAEAKVLANRELDKYGVSDYYKNLINNAKTVEGVKALIDEILAALPYVPG
B30: Z19056 (Z-ABD) (designed binder)
chain: AQHDEALEVDAKYAKEVEEIQLEIYALPNLTRKQYTAFIRKLLDDPSQSSELLSEAKKLNDSQAPKVDYVLAEAKVLANRELDKYGVSDYYKNLINNAKTVEGVKALIDEILAALPYVPG
B31: Z19043 (Z-ABD) (designed binder)
chain: AQHDEALEVDAKYAKEIEEIQMEIYYLPNLTRRQYTAFIRKLLDDPSQSSELLSEAKKLNDSQAPKVDYVLAEAKVLANRELDKYGVSDYYKNLINNAKTVEGVKALIDEILAALPYVPG

This assay concerns the target T1, human IL-1R-I. Nature of the assay: SPR screening; Z-ABD captured on anti-ABD, 100 nM hIL-1R-I injected.
In turn, B1 registered a Kd of 5.2 nM.

B2 had an equilibrium dissociation constant (Kd) of 3 nM.

The molecule B3 came in with a Kd of 3.1 nM.

Consider B4, for which the equilibrium dissociation constant (Kd) was 4.5 nM.

For B5, the equilibrium dissociation constant (Kd) is 3.1 nM.

As to B6, binding was characterised by a dissociation constant (Kd) of 4.8 nM.

Consider B7, for which the dissociation constant (Kd) came out at 5.2 nM.

Molecule B8 yielded a dissociation constant Kd of 2.4 nM.

As for B9, binding was put at a Kd of 9.2 nM.

The molecule B10 registered a dissociation constant (Kd) of 4.5 nM.

Turning to B11, binding was put at a Kd of 8.7 nM.

B12: the equilibrium dissociation constant (Kd) came to 7 nM.

Regarding B13, the Kd amounted to 14 nM.

For B14, the affinity, expressed as Kd, was 9.8 nM.

In turn, B15 showed a Kd of 18 nM.

Take B16: the equilibrium dissociation constant (Kd) is 1.4 nM.

For the molecule B17, binding was put at a Kd of 4.2 nM.

The molecule B18 gave a dissociation constant (Kd) of 17 nM.

For the molecule B19, the dissociation constant Kd worked out at 2.9 nM.

Consider B20, for which the Kd amounted to 3.8 nM.

The molecule B21 registered a Kd of 6.1 nM.

B22 yielded a Kd of 6.7 nM.

Turning to B23, the affinity, expressed as Kd, was 16 nM.

On to B24, for which the dissociation constant (Kd) was determined as 4.2 nM.

Consider B25, for which the Kd stood at 9.5 nM.

Molecule B26 came in with a Kd of 10 nM.

B27 displayed a Kd of 4.9 nM.

In turn, B28 yielded a dissociation constant (Kd) of 8.4 nM.

For B29, the Kd came out at 11 nM.

For the molecule B30, binding was characterised by a dissociation constant (Kd) of 6.9 nM.

Turning to B31, the dissociation constant (Kd) came out at 3.4 nM.
